# Measured values reported in the supplement of paper PMC8728848.
# This is one part of the list.
# B1: Pbx1 (Cryptococcus neoformans) (protein)
# chain: ATTKCLVSGDQDSINNALALGGEGTTVTLCPGSVHRLNSSIIFTAPSQTLTTLGNPKDRNRAMLVVDGEDLACAIRADCKQCSHAMIRSLVIDGNRPQLLRIPKGDALIEVGNAESQTVRDCKLYEPRGWSALHFREGDERQCRFGHIVDNEIGPCGEEWDDEYDSMDETKPLWGNPRADGISLACKDSIVERNVVYDATDGAIVLFGSAGSTVKNNHVYARTRVILGGINLVDYEPWDGDYTNVKVHHNHLYALGRYFKVGIVIGPASWSDDTESVVHSASVTDNEFSGGYWGYGIVVASAKNFEVLRNKVIWDGEQGVARFSGVPGSRCPKAPENGKPTAFLINRGSAKGIFQDDFVNGEVQHIICLNPDQDPPYKPWRFRDSPEAIAAKQAENPTANSAFDSRIAEALVSYQMSLLNSMDAMTQKVEHLTNPIVDDALPFVHEHERAEADKKARQEASRKEKESGNKDVDMLNVKVEELEKSGRRLKKALDGLKSDFEGLSGRLKKSADENKPIIETIFVTSQNLLLGATSQQN
# Experiments:
# Test in all cases: glycan array binding signal (z-score within array); higher = stronger binding
# Conditions in all cases: glycan notation: IUPAC condensed, linker removed
# [1] = biological target: Neu5Ac(a2-3)Gal(b1-4)GlcNAc(b1-2)[Neu5Ac(a2-3)Gal(b1-4)GlcNAc(b1-6)]Man(a1-6)[Neu5Ac(a2-3)Gal(b1-4)GlcNAc(b1-2)Man(a1-3)]Man(b1-4)GlcNAc(b1-4)GlcNAc
# How it was run: (§1)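 Columns mapping to the same glycan were averaged after glycan names were converted to IUPAC-condensed notation. The data come from 3228 arrays in the Consortium for Functional Glycomics database, limited to those with an available protein sequence. Binding is reported as a within-array Z-score averaged across arrays of one protein sequence and across linkers.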
# [2] = biological target: Neu5Ac(a2-3)Gal(b1-4)GlcNAc(b1-2)[Neu5Ac(a2-3)Gal(b1-4)GlcNAc(b1-6)]Man(a1-6)[Neu5Ac(a2-3)Gal(b1-4)GlcNAc(b1-2)Man(a1-3)][GlcNAc(b1-4)]Man(b1-4)GlcNAc(b1-4)GlcNAc
# How it was run: as §1
# [3] = biological target: Neu5Ac(a2-3)Gal(b1-4)GlcNAc(b1-3)Gal
# How it was run: as §1
# [4] = biological target: Neu5Ac(a2-3)Gal(b1-4)GlcNAc(b1-3)Gal(b1-3)GlcNAc
# How it was run: as §1
# [5] = biological target: Neu5Ac(a2-3)Gal(b1-4)GlcNAc(b1-3)Gal(b1-4)GlcNAc
# How it was run: as §1
# [6] = biological target: Neu5Ac(a2-3)Gal(b1-4)GlcNAc(b1-3)Gal(b1-4)GlcNAc(b1-2)Man(a1-3)[Neu5Ac(a2-3)Gal(b1-4)GlcNAc(b1-3)Gal(b1-4)GlcNAc(b1-2)Man(a1-6)]Man(b1-4)GlcNAc(b1-4)GlcNAc
# How it was run: as §1
# [7] = biological target: Neu5Ac(a2-3)Gal(b1-4)GlcNAc(b1-3)Gal(b1-4)GlcNAc(b1-3)Gal(b1-4)GlcNAc
# How it was run: as §1
# [8] = biological target: Neu5Ac(a2-3)Gal(b1-4)GlcNAc(b1-3)Gal(b1-4)GlcNAc(b1-3)Gal(b1-4)GlcNAc(b1-2)Man(a1-3)[Neu5Ac(a2-3)Gal(b1-4)GlcNAc(b1-3)Gal(b1-4)GlcNAc(b1-3)Gal(b1-4)GlcNAc(b1-2)Man(a1-6)]GalNAc
# How it was run: as §1
# [9] = biological target: Neu5Ac(a2-3)Gal(b1-4)GlcNAc(b1-3)Gal(b1-4)GlcNAc(b1-3)GalNAc
# How it was run: as §1
# [10] = biological target: Neu5Ac(a2-3)Gal(b1-4)GlcNAc(b1-3)Gal(b1-4)GlcNAc(b1-3)[Neu5Ac(a2-3)Gal(b1-4)GlcNAc(b1-3)Gal(b1-4)GlcNAc(b1-6)]GalNAc
# How it was run: as §1
# [11] = biological target: Neu5Ac(a2-3)Gal(b1-4)GlcNAc(b1-3)Gal(b1-4)GlcNAc(b1-6)[Gal(b1-3)]GalNAc
# How it was run: as §1
# [12] = biological target: Neu5Ac(a2-3)Gal(b1-4)GlcNAc(b1-3)Gal(b1-4)[Fuc(a1-3)]GlcNAc
# How it was run: as §1
# [13] = biological target: Neu5Ac(a2-3)Gal(b1-4)GlcNAc(b1-3)GalNAc
# How it was run: as §1
# [14] = biological target: Neu5Ac(a2-3)Gal(b1-4)GlcNAc(b1-3)[Neu5Ac(a2-3)Gal(b1-4)GlcNAc(b1-6)]GalNAc
# How it was run: as §1
# [15] = biological target: Neu5Ac(a2-3)Gal(b1-4)GlcNAc(b1-6)GalNAc
# How it was run: as §1
# [16] = biological target: Neu5Ac(a2-3)Gal(b1-4)GlcNAc(b1-6)[Gal(b1-3)]GalNAc
# How it was run: as §1
# [17] = biological target: Neu5Ac(a2-3)Gal(b1-4)GlcNAc(b1-6)[Neu5Ac(a2-3)Gal(b1-3)]GalNAc
# How it was run: as §1
# [18] = biological target: Neu5Ac(a2-3)Gal(b1-4)GlcNAc6S
# How it was run: as §1
# [19] = biological target: Neu5Ac(a2-3)Gal(b1-4)[Fuc(a1-3)]GlcNAc
# How it was run: as §1
# [20] = biological target: Neu5Ac(a2-3)Gal(b1-4)[Fuc(a1-3)]GlcNAc(b1-2)Man
# How it was run: as §1
# [21] = biological target: Neu5Ac(a2-3)Gal(b1-4)[Fuc(a1-3)]GlcNAc(b1-3)Gal
# How it was run: as §1
# [22] = biological target: Neu5Ac(a2-3)Gal(b1-4)[Fuc(a1-3)]GlcNAc(b1-3)Gal(b1-4)GlcNAc
# How it was run: as §1
# [23] = biological target: Neu5Ac(a2-3)Gal(b1-4)[Fuc(a1-3)]GlcNAc(b1-3)Gal(b1-4)[Fuc(a1-3)]GlcNAc(b1-3)Gal(b1-4)[Fuc(a1-3)]GlcNAc
# How it was run: as §1
# [24] = biological target: Neu5Ac(a2-3)Gal(b1-4)[Fuc(a1-3)]GlcNAc(b1-3)GalNAc
# How it was run: as §1
# [25] = biological target: Neu5Ac(a2-3)Gal(b1-4)[Fuc(a1-3)]GlcNAc(b1-6)[Gal(b1-3)]GalNAc
# How it was run: as §1
# [26] = biological target: Neu5Ac(a2-3)Gal(b1-4)[Fuc(a1-3)]GlcNAc(b1-6)[Neu5Ac(a2-3)Gal(b1-3)]GalNAc
# How it was run: as §1
# [27] = biological target: Neu5Ac(a2-3)Gal(b1-4)[Fuc(a1-3)]GlcNAc6S
# How it was run: as §1
# [28] = biological target: Neu5Ac(a2-3)Gal6S(b1-4)GlcNAc
# How it was run: as §1
# [29] = biological target: Neu5Ac(a2-3)Gal6S(b1-4)[Fuc(a1-3)]GlcNAc
# How it was run: as §1
# Neu5Ac(a2-3)GalNAc = biological target: Neu5Ac(a2-3)GalNAc
# How it was run: as §1
# [30] = biological target: Neu5Ac(a2-3)GalNAc(b1-4)GlcNAc
# How it was run: as §1
# [31] = biological target: Neu5Ac(a2-3)[GalNAc(b1-4)]Gal(b1-4)Glc
# How it was run: as §1
# [32] = biological target: Neu5Ac(a2-3)[GalNAc(b1-4)]Gal(b1-4)GlcNAc
# How it was run: as §1
# [33] = biological target: Neu5Ac(a2-3)[GalNAc(b1-4)]Gal(b1-4)GlcNAc(b1-3)GalNAc
# How it was run: as §1
# [34] = biological target: Neu5Ac(a2-3)[Neu5Ac(a2-6)]GalNAc
# How it was run: as §1
# Neu5Ac(a2-6)Gal = biological target: Neu5Ac(a2-6)Gal
# How it was run: as §1
# [35] = biological target: Neu5Ac(a2-6)Gal(b1-3)GlcNAc(b1-3)[Gal(b1-4)GlcNAc(b1-6)]Gal(b1-4)Glc
# How it was run: as §1
binder,measurement,setting,value
B1,glycan array binding signal (z-score),[1],-0.318
same,glycan array binding signal (z-score),[2],-0.217
same,glycan array binding signal (z-score),[3],-0.544
same,glycan array binding signal (z-score),[4],-0.386
same,glycan array binding signal (z-score),[5],-0.201
same,glycan array binding signal (z-score),[6],-0.37
same,glycan array binding signal (z-score),[7],-0.335
same,glycan array binding signal (z-score),[8],1.77
same,glycan array binding signal (z-score),[9],-0.115
same,glycan array binding signal (z-score),[10],0.917
same,glycan array binding signal (z-score),[11],-0.042
same,glycan array binding signal (z-score),[12],0.13
same,glycan array binding signal (z-score),[13],-0.607
same,glycan array binding signal (z-score),[14],-0.561
same,glycan array binding signal (z-score),[15],-0.703
same,glycan array binding signal (z-score),[16],-0.318
same,glycan array binding signal (z-score),[17],0.206
same,glycan array binding signal (z-score),[18],-0.551
same,glycan array binding signal (z-score),[19],-0.072
same,glycan array binding signal (z-score),[20],0.371
same,glycan array binding signal (z-score),[21],-0.349
same,glycan array binding signal (z-score),[22],0.071
same,glycan array binding signal (z-score),[23],-0.497
same,glycan array binding signal (z-score),[24],2.16
same,glycan array binding signal (z-score),[25],3.7
same,glycan array binding signal (z-score),[26],0.371
same,glycan array binding signal (z-score),[27],-0.255
same,glycan array binding signal (z-score),[28],0.775
same,glycan array binding signal (z-score),[29],-1.04
same,glycan array binding signal (z-score),Neu5Ac(a2-3)GalNAc,-0.361
same,glycan array binding signal (z-score),[30],-1.27
same,glycan array binding signal (z-score),[31],-0.399
same,glycan array binding signal (z-score),[32],-0.475
same,glycan array binding signal (z-score),[33],0.696
same,glycan array binding signal (z-score),[34],-0.513
same,glycan array binding signal (z-score),Neu5Ac(a2-6)Gal,-0.433
same,glycan array binding signal (z-score),[35],0.509
